The target of assay [1] is FLAG-tagged WT p38α (HEK293) (UniProt Q16539). The experiment in a line: co-IP; HEK293 cells, 100 μM H2O2; anti-FLAG M2 affinity gel overnight at 4 °C, 50 mM Tris-HCl pH 7.4, 150 mM NaCl, 1% Triton X-100; precipitates on non-reducing SDS-PAGE, immunoblot for the dimer. Background: In western blotting, separated proteins are transferred to a membrane and probed.
For assay [2], the target named is FLAG-tagged p38α C119S/C162S (HEK293) (UniProt Q16539). The assay is described as above.
The target of assay [3] is FLAG-tagged p38α C162S (HEK293) (UniProt Q16539). Kind of assay: non-reducing SDS-PAGE with immunoblot; HEK293 cells overexpressing FLAG-p38α and/or HA-MKK3, 10, 50 or 100 μM H2O2 for 10 min (also with 2 μM auranofin), harvested in SDS sample buffer with 100 μM maleimide; shows only the disulfide-linked complex.
In assay [4] the target is FLAG-tagged WT p38α (HEK293) (UniProt Q16539). Described as above.
For assay [5], the target named is FLAG-tagged p38α C119S (HEK293) (UniProt Q16539). Described as above.
In assay [6] the target is FLAG-tagged p38α C119S/C162S (HEK293) (UniProt Q16539). Described as above.
The target of assay [7] is T1, HA-tagged MKK3 (HEK293), P46734.
T1 chain: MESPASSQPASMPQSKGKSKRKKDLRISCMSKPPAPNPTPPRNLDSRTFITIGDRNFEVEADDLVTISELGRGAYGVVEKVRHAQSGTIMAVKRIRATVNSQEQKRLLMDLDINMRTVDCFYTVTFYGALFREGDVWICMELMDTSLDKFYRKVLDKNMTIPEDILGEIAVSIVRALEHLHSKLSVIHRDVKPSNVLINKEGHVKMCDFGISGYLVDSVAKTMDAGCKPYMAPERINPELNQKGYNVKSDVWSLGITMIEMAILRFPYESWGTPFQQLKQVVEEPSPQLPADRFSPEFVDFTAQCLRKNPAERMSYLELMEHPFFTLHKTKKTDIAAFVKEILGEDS
The description is as above. Conditions: remark: other sources report otherwise.

The chains behind the UniProt entries cited, without tags or fusion partners. Where a name states a change or a piece, a line headed by the entry shows the natural chain unless it says otherwise.
UniProt Q16539: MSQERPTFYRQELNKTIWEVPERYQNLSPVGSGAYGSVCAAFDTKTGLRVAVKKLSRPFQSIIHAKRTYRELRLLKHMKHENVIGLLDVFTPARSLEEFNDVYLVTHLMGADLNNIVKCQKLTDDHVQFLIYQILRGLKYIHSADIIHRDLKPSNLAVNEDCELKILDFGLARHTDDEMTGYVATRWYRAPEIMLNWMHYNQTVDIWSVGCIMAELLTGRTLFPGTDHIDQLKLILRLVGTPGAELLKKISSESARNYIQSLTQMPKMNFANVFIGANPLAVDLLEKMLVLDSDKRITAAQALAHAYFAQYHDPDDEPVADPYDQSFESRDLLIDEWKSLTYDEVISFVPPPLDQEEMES

The target in assay [8] is FLAG-tagged p38α C119S/C162S (H9C2) (UniProt Q16539). The experiment in a line: non-reducing SDS-PAGE with immunoblot; H9C2 cells, native or transfected, simulated ischemia 5-40 min and simulated reperfusion 2.5-40 min, harvested in SDS sample buffer with 100 μM maleimide; shows only the disulfide-linked complex.
Assay [9] deals with FLAG-tagged WT p38α (H9C2) (UniProt Q16539). The description is as above.

Consider three molecules from paper PMC5625047.

No constants are given. Whether binding was seen depends on the method and setting. For part of these data: In cells and extracts the contact can be indirect. Some binding calls cover weakened binding; strength is not graded here. Sequences can lack the tags named with a protein.

B1: HA-tagged MKK3 (HEK293) (protein, UniProt P46734 1-347)
chain: MESPASSQPASMPQSKGKSKRKKDLRISCMSKPPAPNPTPPRNLDSRTFITIGDRNFEVEADDLVTISELGRGAYGVVEKVRHAQSGTIMAVKRIRATVNSQEQKRLLMDLDINMRTVDCFYTVTFYGALFREGDVWICMELMDTSLDKFYRKVLDKNMTIPEDILGEIAVSIVRALEHLHSKLSVIHRDVKPSNVLINKEGHVKMCDFGISGYLVDSVAKTMDAGCKPYMAPERINPELNQKGYNVKSDVWSLGITMIEMAILRFPYESWGTPFQQLKQVVEEPSPQLPADRFSPEFVDFTAQCLRKNPAERMSYLELMEHPFFTLHKTKKTDIAAFVKEILGEDS
Turning to B1, the binding entry is “binds” in assay [1]; “no binding” in assay [2]; “binds” in [3]; “binds” in [4]; “binds” in [5]; “no binding” in [6].

B2: HA-tagged MKK3 (HEK293), P46734 1-347 (protein)
chain: MESPASSQPASMPQSKGKSKRKKDLRISCMSKPPAPNPTPPRNLDSRTFITIGDRNFEVEADDLVTISELGRGAYGVVEKVRHAQSGTIMAVKRIRATVNSQEQKRLLMDLDINMRTVDCFYTVTFYGALFREGDVWICMELMDTSLDKFYRKVLDKNMTIPEDILGEIAVSIVRALEHLHSKLSVIHRDVKPSNVLINKEGHVKMCDFGISGYLVDSVAKTMDAGCKPYMAPERINPELNQKGYNVKSDVWSLGITMIEMAILRFPYESWGTPFQQLKQVVEEPSPQLPADRFSPEFVDFTAQCLRKNPAERMSYLELMEHPFFTLHKTKKTDIAAFVKEILGEDS
For the molecule B2, in assay [7], the binding entry is reported as “no binding”.

B3: HA-tagged MKK3 (H9C2) (protein, UniProt P46734 1-347)
chain: MESPASSQPASMPQSKGKSKRKKDLRISCMSKPPAPNPTPPRNLDSRTFITIGDRNFEVEADDLVTISELGRGAYGVVEKVRHAQSGTIMAVKRIRATVNSQEQKRLLMDLDINMRTVDCFYTVTFYGALFREGDVWICMELMDTSLDKFYRKVLDKNMTIPEDILGEIAVSIVRALEHLHSKLSVIHRDVKPSNVLINKEGHVKMCDFGISGYLVDSVAKTMDAGCKPYMAPERINPELNQKGYNVKSDVWSLGITMIEMAILRFPYESWGTPFQQLKQVVEEPSPQLPADRFSPEFVDFTAQCLRKNPAERMSYLELMEHPFFTLHKTKKTDIAAFVKEILGEDS
Consider B3, for which the binding result in [8] is reported as “no binding”; in assay [9] it was “binds”.
